# Experimental data as given in the supplement of paper PMC8728848.
# This is one part of the list.
# What was measured:
# Test in all cases: glycan array binding signal (z-score within array); higher = stronger binding
# Conditions in all cases: glycan notation: IUPAC condensed, linker removed
# [1] = biological target: Gal(b1-4)GlcNAc(a1-6)Gal(b1-4)GlcNAc
# Outline: (§1)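 The binding signal is a Z-score computed within each array. Data were drawn from 3228 arrays in the Consortium for Functional Glycomics database, restricted to those with a known protein sequence. Scores were averaged over arrays of the same protein sequence at different concentrations or buffers, and over linkers, and negative values can be taken as non-binding.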
# [2] = biological target: Gal(b1-4)GlcNAc(b1-2)Man(a1-3)Man(b1-4)GlcNAc(b1-4)GlcNAc
# Outline: as §1
# [3] = biological target: Gal(b1-4)GlcNAc(b1-2)Man(a1-3)[Gal(b1-4)GlcNAc(b1-2)Man(a1-6)]Man(b1-4)GlcNAc(b1-4)GlcNAc
# Outline: as §1
# [4] = biological target: Gal(b1-4)GlcNAc(b1-2)Man(a1-3)[Gal(b1-4)GlcNAc(b1-2)Man(a1-6)]Man(b1-4)GlcNAc(b1-4)[Fuc(a1-6)]GlcNAc
# Outline: as §1
# [5] = biological target: Gal(b1-4)GlcNAc(b1-2)Man(a1-3)[Man(a1-6)]Man(b1-4)GlcNAc(b1-4)GlcNAc
# Outline: as §1
# [6] = biological target: Gal(b1-4)GlcNAc(b1-2)Man(a1-6)Man(b1-4)GlcNAc(b1-4)GlcNAc
# Outline: as §1
# [7] = biological target: Gal(b1-4)GlcNAc(b1-2)Man(a1-6)[Man(a1-3)]Man(b1-4)GlcNAc(b1-4)GlcNAc
# Outline: as §1
# [8] = biological target: Gal(b1-4)GlcNAc(b1-2)[Gal(b1-4)GlcNAc(b1-4)]Man(a1-3)[Gal(b1-4)GlcNAc(b1-2)Man(a1-6)]Man(b1-4)GlcNAc(b1-4)GlcNAc
# Outline: as §1
# [9] = biological target: Gal(b1-4)GlcNAc(b1-3)Gal(b1-3)GlcNAc
# Outline: as §1
# [10] = biological target: Gal(b1-4)GlcNAc(b1-3)Gal(b1-4)Glc
# Outline: as §1
# [11] = biological target: Gal(b1-4)GlcNAc(b1-3)Gal(b1-4)GlcNAc
# Outline: as §1
# [12] = biological target: Gal(b1-4)GlcNAc(b1-3)Gal(b1-4)GlcNAc(b1-3)Gal(b1-4)GlcNAc
# Outline: as §1
# [13] = biological target: Gal(b1-4)GlcNAc(b1-3)Gal(b1-4)[Fuc(a1-3)]GlcNAc(b1-3)Gal(b1-4)[Fuc(a1-3)]GlcNAc
# Outline: as §1
# [14] = biological target: Gal(b1-4)GlcNAc(b1-3)GalNAc
# Outline: as §1
# [15] = biological target: Gal(b1-4)GlcNAc(b1-3)[Gal(b1-4)GlcNAc(b1-6)]Gal(b1-4)GlcNAc
# Outline: as §1
# [16] = biological target: Gal(b1-4)GlcNAc(b1-3)[GlcNAc(b1-6)]Gal(b1-4)GlcNAc
# Outline: as §1
# [17] = biological target: Gal(b1-4)GlcNAc(b1-6)Gal(b1-4)GlcNAc
# Outline: as §1
# [18] = biological target: Gal(b1-4)GlcNAc(b1-6)Gal(b1-4)GlcNAc(b1-6)GalNAc
# Outline: as §1
# [19] = biological target: Gal(b1-4)GlcNAc(b1-6)GalNAc
# Outline: as §1
# [20] = biological target: Gal(b1-4)GlcNAc(b1-6)[Gal(b1-3)]GalNAc
# Outline: as §1
# [21] = biological target: Gal3S(b1-3)GalNAc
# Outline: as §1
# [22] = biological target: Gal3S(b1-3)GlcNAc
# Outline: as §1
# [23] = biological target: Gal3S(b1-3)[Fuc(a1-4)]GlcNAc
# Outline: as §1
# [24] = biological target: Gal3S(b1-4)Glc
# Outline: as §1
# [25] = biological target: Gal3S(b1-4)Glc6S
# Outline: as §1
# [26] = biological target: Gal3S(b1-4)GlcNAc
# Outline: as §1
# [27] = biological target: Gal3S(b1-4)GlcNAc6S
# Outline: as §1
# [28] = biological target: Gal3S(b1-4)[Fuc(a1-3)]Glc
# Outline: as §1
# [29] = biological target: Gal3S4S(b1-4)GlcNAc
# Outline: as §1
# [30] = biological target: Gal3S6S(b1-4)GlcNAc
# Outline: as §1
# [31] = biological target: Gal3S6S(b1-4)GlcNAc6S
# Outline: as §1
# [32] = biological target: Gal4S(b1-4)GlcNAc
# Outline: as §1
# [33] = biological target: Gal4S6S(b1-4)GlcNAc
# Outline: as §1
# [34] = biological target: Gal6S(b1-4)Glc
# Outline: as §1
# [35] = biological target: Gal6S(b1-4)Glc6S
# Outline: as §1
# [36] = biological target: Gal6S(b1-4)GlcNAc
# Outline: as §1
# [37] = biological target: Gal6S(b1-4)GlcNAc6S
# Outline: as §1
# [38] = biological target: GalNAc(a1-3)Gal
# Outline: as §1
# [39] = biological target: GalNAc(a1-3)GalNAc
# Outline: as §1
# [40] = biological target: GalNAc(b1-3)Gal
# Outline: as §1
# [41] = biological target: GalNAc(b1-3)Gal(a1-4)Gal(b1-4)GlcNAc
# Outline: as §1
# [42] = biological target: GalNAc(b1-3)Gal(a1-4)Gal(b1-4)GlcNAc(b1-3)Gal(b1-4)Glc
# Outline: as §1
# [43] = biological target: GalNAc(b1-3)GalNAc
# Outline: as §1
# [44] = biological target: GalNAc(b1-4)GlcNAc
# Outline: as §1
# [45] = biological target: GalNAc(b1-4)GlcNAc(b1-2)Man(a1-3)[GalNAc(b1-4)GlcNAc(b1-2)Man(a1-6)]Man(b1-4)GlcNAc(b1-4)GlcNAc
# Outline: as §1
# [46] = biological target: Glc(a1-4)Glc
# Outline: as §1
# [47] = biological target: Glc(a1-6)Glc(a1-6)Glc
# Outline: as §1
# [48] = biological target: Glc(b1-4)Glc
# Outline: as §1
# [49] = biological target: Glc(b1-6)Glc
# Outline: as §1
# [50] = biological target: GlcA(b1-3)Gal
# Outline: as §1
# [51] = biological target: GlcA(b1-3)GlcNAc
# Outline: as §1
# [52] = biological target: GlcA(b1-6)Gal
# Outline: as §1
# [53] = biological target: GlcNAc(a1-3)Gal(b1-4)GlcNAc
# Outline: as §1
# [54] = biological target: GlcNAc(a1-4)Gal(b1-3)GlcNAc
# Outline: as §1
# [55] = biological target: GlcNAc(a1-4)Gal(b1-4)GalNAc
# Outline: as §1
# [56] = biological target: GlcNAc(a1-4)Gal(b1-4)GlcNAc
# Outline: as §1
# [57] = biological target: GlcNAc(a1-4)Gal(b1-4)GlcNAc(b1-3)Gal(b1-4)Glc
# Outline: as §1
# [58] = biological target: GlcNAc(a1-4)Gal(b1-4)GlcNAc(b1-3)Gal(b1-4)GlcNAc
# Outline: as §1
# [59] = biological target: GlcNAc(a1-4)Gal(b1-4)GlcNAc(b1-3)Gal(b1-4)GlcNAc(b1-3)Gal(b1-4)GlcNAc
# Outline: as §1
# [60] = biological target: GlcNAc(a1-4)Gal(b1-4)GlcNAc(b1-3)Gal(b1-4)[Fuc(a1-3)]GlcNAc(b1-3)Gal(b1-4)[Fuc(a1-3)]GlcNAc
# Outline: as §1
# [61] = biological target: GlcNAc(a1-6)Gal(b1-4)GlcNAc
# Outline: as §1
# [62] = biological target: GlcNAc(b1-2)Gal(b1-3)GalNAc
# Outline: as §1
# [63] = biological target: GlcNAc(b1-2)Man(a1-3)[GlcNAc(b1-2)Man(a1-6)]Man(b1-4)GlcNAc(b1-4)GlcNAc
# Outline: as §1
# [64] = biological target: GlcNAc(b1-2)Man(a1-3)[GlcNAc(b1-2)Man(a1-6)]Man(b1-4)GlcNAc(b1-4)[Fuc(a1-6)]GlcNAc
# Outline: as §1
# [65] = biological target: GlcNAc(b1-3)Gal
# Outline: as §1
# [66] = biological target: GlcNAc(b1-3)Gal(b1-3)GalNAc
# Outline: as §1
# [67] = biological target: GlcNAc(b1-3)Gal(b1-4)Glc
# Outline: as §1
# [68] = biological target: GlcNAc(b1-3)Gal(b1-4)GlcNAc
# Outline: as §1
# [69] = biological target: GlcNAc(b1-3)Gal(b1-4)GlcNAc(b1-3)Gal(b1-4)GlcNAc
# Outline: as §1
# [70] = biological target: GlcNAc(b1-3)GalNAc
# Outline: as §1
# [71] = biological target: GlcNAc(b1-3)Man
# Outline: as §1
# [72] = biological target: GlcNAc(b1-3)[GlcNAc(b1-4)][GlcNAc(b1-6)]GlcNAc
# Outline: as §1
# [73] = biological target: GlcNAc(b1-3)[GlcNAc(b1-6)]Gal(b1-4)GlcNAc
# Outline: as §1
# [74] = biological target: GlcNAc(b1-3)[GlcNAc(b1-6)]GalNAc
# Outline: as §1
# [75] = biological target: GlcNAc(b1-4)Gal(b1-4)GlcNAc
# Outline: as §1
binder,measurement,setting,value
"HHL-1 (Homo sapiens), P07306 (protein) TKEYQDLQHLDNEESDHHQLRKGPPPPQPLLQRLCSGPRLLLLSLGLSLLLLVVVCVIGSQNSQLQEELRGLRETFSNFTASTEAQVKGLSTQGGNVGRKMKSLESQLEKQQKDLSEDHSSLLLHVKQFVSDLRSLSCQMAALQGNGSERTCCPVNWVEHERSCYWFSRSGKAWADADNYCRLEDAHLVVVTSWEEQKFVQHHIGPVNTWMGLHDQNGPWKWVDGTDYETGFKNWRPEQPDDWYGHGLGGGEDCAHFTDDGRWNDDVCQRPYRWVCETELDKASQEPPLL",glycan array binding signal (z-score),[1],0.064
same,glycan array binding signal (z-score),[2],-0.358
same,glycan array binding signal (z-score),[3],-0.525
same,glycan array binding signal (z-score),[4],-0.551
same,glycan array binding signal (z-score),[5],-0.541
same,glycan array binding signal (z-score),[6],-0.544
same,glycan array binding signal (z-score),[7],0.739
same,glycan array binding signal (z-score),[8],-0.183
same,glycan array binding signal (z-score),[9],-0.519
same,glycan array binding signal (z-score),[10],0.621
same,glycan array binding signal (z-score),[11],-0.545
same,glycan array binding signal (z-score),[12],-0.523
same,glycan array binding signal (z-score),[13],-0.333
same,glycan array binding signal (z-score),[14],-0.137
same,glycan array binding signal (z-score),[15],-0.034
same,glycan array binding signal (z-score),[16],-0.525
same,glycan array binding signal (z-score),[17],0.036
same,glycan array binding signal (z-score),[18],0.262
same,glycan array binding signal (z-score),[19],4.51
same,glycan array binding signal (z-score),[20],0.32
same,glycan array binding signal (z-score),[21],-0.458
same,glycan array binding signal (z-score),[22],0.228
same,glycan array binding signal (z-score),[23],-0.127
same,glycan array binding signal (z-score),[24],-0.411
same,glycan array binding signal (z-score),[25],0.046
same,glycan array binding signal (z-score),[26],-0.226
same,glycan array binding signal (z-score),[27],-0.129
same,glycan array binding signal (z-score),[28],1.04
same,glycan array binding signal (z-score),[29],-0.434
same,glycan array binding signal (z-score),[30],-0.557
same,glycan array binding signal (z-score),[31],0.503
same,glycan array binding signal (z-score),[32],-0.443
same,glycan array binding signal (z-score),[33],0.319
same,glycan array binding signal (z-score),[34],-0.241
same,glycan array binding signal (z-score),[35],0.876
same,glycan array binding signal (z-score),[36],-0.536
same,glycan array binding signal (z-score),[37],0.389
same,glycan array binding signal (z-score),[38],3.08
same,glycan array binding signal (z-score),[39],-0.502
same,glycan array binding signal (z-score),[40],4.09
same,glycan array binding signal (z-score),[41],5.53
same,glycan array binding signal (z-score),[42],5.52
same,glycan array binding signal (z-score),[43],0.08
same,glycan array binding signal (z-score),[44],1.05
same,glycan array binding signal (z-score),[45],0.24
same,glycan array binding signal (z-score),[46],-0.386
same,glycan array binding signal (z-score),[47],-0.559
same,glycan array binding signal (z-score),[48],-0.295
same,glycan array binding signal (z-score),[49],-0.414
same,glycan array binding signal (z-score),[50],-0.5
same,glycan array binding signal (z-score),[51],-0.546
same,glycan array binding signal (z-score),[52],-0.081
same,glycan array binding signal (z-score),[53],-0.151
same,glycan array binding signal (z-score),[54],0.841
same,glycan array binding signal (z-score),[55],-0.165
same,glycan array binding signal (z-score),[56],-0.521
same,glycan array binding signal (z-score),[57],-0.538
same,glycan array binding signal (z-score),[58],-0.562
same,glycan array binding signal (z-score),[59],-0.496
same,glycan array binding signal (z-score),[60],1.55
same,glycan array binding signal (z-score),[61],-0.516
same,glycan array binding signal (z-score),[62],-0.548
same,glycan array binding signal (z-score),[63],-0.487
same,glycan array binding signal (z-score),[64],0.484
same,glycan array binding signal (z-score),[65],-0.562
same,glycan array binding signal (z-score),[66],1.54
same,glycan array binding signal (z-score),[67],-0.307
same,glycan array binding signal (z-score),[68],-0.387
same,glycan array binding signal (z-score),[69],0.833
same,glycan array binding signal (z-score),[70],1.09
same,glycan array binding signal (z-score),[71],0.259
same,glycan array binding signal (z-score),[72],-0.553
same,glycan array binding signal (z-score),[73],-0.561
same,glycan array binding signal (z-score),[74],0.046
same,glycan array binding signal (z-score),[75],-0.498
